In all, about 33,000 sequences were measured (“E-score (-0.5 to 0.5)”: median about -0.054, highest 2% from about 0.35 on). The list shows a part of the results.
Target: T1, Stb5 (UniProt P38699)
T1 sequence: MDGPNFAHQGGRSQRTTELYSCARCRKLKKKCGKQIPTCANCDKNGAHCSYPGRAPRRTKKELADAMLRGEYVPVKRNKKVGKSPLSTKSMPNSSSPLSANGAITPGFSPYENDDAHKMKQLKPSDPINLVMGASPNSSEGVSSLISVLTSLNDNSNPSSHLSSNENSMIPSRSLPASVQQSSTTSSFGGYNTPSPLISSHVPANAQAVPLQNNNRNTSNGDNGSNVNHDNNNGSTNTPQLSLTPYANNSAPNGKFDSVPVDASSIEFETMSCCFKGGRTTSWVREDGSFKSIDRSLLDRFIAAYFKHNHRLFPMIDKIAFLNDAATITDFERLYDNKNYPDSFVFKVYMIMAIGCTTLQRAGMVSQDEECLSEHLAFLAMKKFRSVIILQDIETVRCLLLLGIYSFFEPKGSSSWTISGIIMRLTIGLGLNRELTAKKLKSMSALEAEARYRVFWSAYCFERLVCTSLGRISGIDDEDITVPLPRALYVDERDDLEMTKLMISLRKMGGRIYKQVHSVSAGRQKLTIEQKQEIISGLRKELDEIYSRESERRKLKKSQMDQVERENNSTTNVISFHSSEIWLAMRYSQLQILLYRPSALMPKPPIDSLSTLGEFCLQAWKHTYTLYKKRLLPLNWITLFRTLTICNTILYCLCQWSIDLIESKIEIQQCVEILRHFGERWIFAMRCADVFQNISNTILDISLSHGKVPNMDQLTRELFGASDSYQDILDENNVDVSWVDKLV
Assay: PBM E-score (8-mer binding enrichment) (E-score (-0.5 to 0.5)); higher = stronger / more preferred TF binding; most listed sequences are background and not binding sites
Details: protein concentration: 200 nM; construct: GST-full length
Procedure, shortened: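 Bound GST-tagged yeast transcription factors, applied at about 100-200 nM to double-stranded universal all-10-mer Agilent arrays, were detected with fluorescent anti-GST. Scans were normalised with masliner. A modified Wilcoxon-Mann-Whitney statistic, the E-score, was assigned to each ungapped eight-base word pooled with its reverse complement by the Universal PBM Analysis Suite.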

Compared with GCCGGCCA, ACCCCAAT is lower in “PBM E-score” value: 0.191 for the first, -0.215 for the second.

First: GAGCTAAC
Second: AGTCAGTC
The “PBM E-score” value of the first is higher: 0.00157 for the first, -0.236 for the second.

Compared with AATTCCGG, CCGAAGAA is lower in “PBM E-score” value: 0.216 for the first, 0.118 for the second.

Compared with ACGAACCC, TATACTCA is lower in “PBM E-score” value: 0.131 for the first, -0.245 for the second.

Going from GCTCCTCA to ATAATTTC, the “PBM E-score” value rises from -0.0663 to 0.044.

First: AGTCAGTA
Second: GTGAGACA
The “PBM E-score” value of the first is higher: -0.0496 for the first, -0.132 for the second.

Going from ATCCTATC to GCCAAACC, the “PBM E-score” value falls from 0.155 to 0.0718.

Going from ATAGGAAA to AGTCCTTC, the “PBM E-score” value falls from -0.115 to -0.206.

First: GGTTAAGA
Second: ACGCAGAG
The “PBM E-score” value of the first is higher: 0.122 for the first, -0.218 for the second.

Going from CAGGCGAC to AATGCTAA, the “PBM E-score” value rises from -0.148 to -0.133.

Going from GGCGATTA to AGCAAAGG, the “PBM E-score” value falls from 0.12 to 0.00453.

Going from AGTGTGGG to CTTTTATC, the “PBM E-score” value rises from 0.0385 to 0.161.

First: GAAACTCC
Second: ATTTCGAA
The “PBM E-score” value of the first is higher: 0.24 for the first, 0.0569 for the second.

Compared with CTTGTCCC, GGTGAAAC is higher in “PBM E-score” value: 0.0601 for the first, 0.186 for the second.

First: AGTAAGAC
Second: GTACGAGA
The “PBM E-score” value of the first is higher: -0.025 for the first, -0.0711 for the second.

First: TCAGATCA
Second: ACATGACC
The “PBM E-score” value of the first is higher: -0.15 for the first, -0.152 for the second.

First: AGTAACTC
Second: GTCCCACA
The “PBM E-score” value of the first is higher: 0.106 for the first, 0.0294 for the second.

First: AACTTGAG
Second: ATGTGCTA
The “PBM E-score” value of the first is lower: -0.19 for the first, 0.138 for the second.

First: CGACCATC
Second: CATCCACA
The “PBM E-score” value of the first is higher: 0.00746 for the first, -0.14 for the second.

Going from ACGCTAAG to GGACAGGA, the “PBM E-score” value rises from -0.215 to -0.0731.

First: ATCACGAT
Second: GTAGTACA
The “PBM E-score” value of the first is lower: -0.225 for the first, -0.138 for the second.

Going from GTGTGAAA to ATCGAAGG, the “PBM E-score” value falls from 0.0202 to -0.0624.

Going from CCCACCGA to GGCAGATA, the “PBM E-score” value falls from 0.118 to 0.0829.

Going from GCCGTCGC to CTATCTGA, the “PBM E-score” value falls from 0.281 to -0.167.

Going from CGATTTCC to CAGGTCAC, the “PBM E-score” value falls from 0.0717 to -0.205.

First: ACGCTTTA
Second: TAATCTGA
The “PBM E-score” value of the first is lower: -0.303 for the first, -0.0492 for the second.

First: ATGGAGAC
Second: ATTATATC
The “PBM E-score” value of the first is lower: -0.0229 for the first, 0.103 for the second.

First: CATGCACC
Second: CTCGAGTC
The “PBM E-score” value of the first is higher: 0.0407 for the first, -0.021 for the second.

Going from GAGCCCAA to GGTATGAA, the “PBM E-score” value rises from -0.127 to 0.0355.

Going from CTGCGTGA to AAGATTGC, the “PBM E-score” value falls from -0.132 to -0.246.

Going from GGGTTGCA to CGGTATTC, the “PBM E-score” value rises from -0.124 to 0.275.

Compared with CCAGATAG, AAAGTTAT is higher in “PBM E-score” value: -0.314 for the first, -0.0717 for the second.

First: CGAAATAC
Second: GTTGCGTA
The “PBM E-score” value of the first is higher: 0.104 for the first, -0.144 for the second.

First: AAGCTATA
Second: CAAGGGTC
The “PBM E-score” value of the first is higher: 0.0236 for the first, 0.0197 for the second.

Going from GGCTCTAA to AGCAAATA, the “PBM E-score” value falls from 0.191 to -0.0577.

Going from CAGCCATG to CGTAACGC, the “PBM E-score” value rises from -0.303 to 0.0528.

Going from GCAGCTCC to CCCGCTTA, the “PBM E-score” value rises from -0.193 to 0.229.

Going from AGGTCAAG to TACTAGAA, the “PBM E-score” value rises from -0.193 to -0.0572.

First: GGTTAGAA
Second: ATCTCGTA
The “PBM E-score” value of the first is higher: 0.0993 for the first, -0.0738 for the second.

First: GCTAGCTA
Second: CGAGGTGC
The “PBM E-score” value of the first is lower: -0.293 for the first, -0.146 for the second.

Compared with ACGTAAGC, AACGGAGT is higher in “PBM E-score” value: -0.117 for the first, 0.378 for the second.

Compared with ACGACGAC, CAGTGCGC is lower in “PBM E-score” value: -0.0926 for the first, -0.135 for the second.

Going from ATGTGTAA to GCTCGTCC, the “PBM E-score” value falls from -0.0845 to -0.131.

Going from GAACATCA to AGGCTATG, the “PBM E-score” value falls from -0.0947 to -0.315.

First: GAGTTAAC
Second: CCAGGCGC
The “PBM E-score” value of the first is lower: -0.0773 for the first, -0.0205 for the second.

Compared with CGTGATTA, CTGGAACC is lower in “PBM E-score” value: 0.107 for the first, -0.175 for the second.

Compared with AGTCAGAT, AACCAGCT is lower in “PBM E-score” value: -0.0492 for the first, -0.363 for the second.

Going from CTTAACGC to ACCCCAGG, the “PBM E-score” value falls from -0.0225 to -0.186.

First: CGTTGACC
Second: CAGCTGGC
The “PBM E-score” value of the first is higher: 0.012 for the first, -0.0326 for the second.

Compared with CCAATGGA, GAAGCATC is higher in “PBM E-score” value: -0.129 for the first, -0.123 for the second.

Compared with AAGGAACG, ATCATACG is lower in “PBM E-score” value: 0.0058 for the first, 0.00538 for the second.

First: AGCCGCCG
Second: AACACCTG
The “PBM E-score” value of the first is higher: 0.215 for the first, 0.179 for the second.

Compared with ATACTGAA, CATACTGG is higher in “PBM E-score” value: -0.141 for the first, -0.062 for the second.

First: GTTCTGTA
Second: ATACGAGC
The “PBM E-score” value of the first is lower: -0.123 for the first, -0.0505 for the second.

First: AGAACATA
Second: ACTTCAGG
The “PBM E-score” value of the first is higher: 0.195 for the first, 0.0129 for the second.

First: TTCCCAAA
Second: CAACGCCA
The “PBM E-score” value of the first is higher: -0.154 for the first, -0.196 for the second.

Compared with CATGCTGA, GCCCTATA is higher in “PBM E-score” value: -0.188 for the first, 0.12 for the second.

First: ATCCGGCC
Second: CTTGACAC
The “PBM E-score” value of the first is higher: 0.255 for the first, -0.0634 for the second.

Compared with ACGTGCGC, TAAAAAGA is lower in “PBM E-score” value: 0.116 for the first, 0.046 for the second.

Compared with ACATTATG, AGGTGTGC is lower in “PBM E-score” value: -0.0318 for the first, -0.316 for the second.

First: AGCCTTAG
Second: GATTGAAA
The “PBM E-score” value of the first is lower: -0.304 for the first, 0.0395 for the second.

Going from CCTCAGAG to CCCGTGCA, the “PBM E-score” value rises from -0.148 to 0.209.

Going from TACGCGCA to AATACTCA, the “PBM E-score” value rises from -0.0683 to -0.0587.

Going from ACGACAGT to GTCCCAGA, the “PBM E-score” value falls from -0.193 to -0.213.

Going from CGAACATC to AGTCTGGC, the “PBM E-score” value falls from 0.105 to -0.236.

Compared with AAGGCTGG, CCCAAAAG is higher in “PBM E-score” value: -0.463 for the first, -0.069 for the second.

Going from CTCACGAC to AGTGGAGA, the “PBM E-score” value rises from -0.179 to -0.16.

First: ATAGGGGG
Second: ATAGTGGC
The “PBM E-score” value of the first is lower: -0.286 for the first, 0.144 for the second.

First: GCTTATAA
Second: ACCGCAGA
The “PBM E-score” value of the first is lower: 0.0966 for the first, 0.138 for the second.

Going from TCTCGAGA to AGATCAAT, the “PBM E-score” value rises from -0.143 to -0.106.

Going from AGGTCTAT to CGACGCTA, the “PBM E-score” value rises from -0.21 to 0.0289.

Compared with CTATATGC, CCGATAAG is higher in “PBM E-score” value: -0.00858 for the first, 0.199 for the second.

Compared with GATCTAGC, AATTTGAA is higher in “PBM E-score” value: -0.12 for the first, 0.0577 for the second.

Compared with AGCCGAGG, CTAGTATC is lower in “PBM E-score” value: -0.00403 for the first, -0.0731 for the second.

First: ACATGTTA
Second: AACATACT
The “PBM E-score” value of the first is lower: -0.173 for the first, -0.157 for the second.

Going from TAACACCA to CATAAGCA, the “PBM E-score” value falls from 0.279 to -0.0101.

Going from AGACAATC to AAAGCTCA, the “PBM E-score” value falls from -0.137 to -0.28.

Compared with CTTAACAA, GAAACCCA is higher in “PBM E-score” value: -0.0444 for the first, 0.0284 for the second.

Going from AGTCCCGG to ATCTGTTG, the “PBM E-score” value falls from 0.331 to -0.254.

First: TGAGACCA
Second: CACGTTAA
The “PBM E-score” value of the first is lower: -0.326 for the first, -0.156 for the second.

Compared with AGCTGCGG, GCGCTATA is lower in “PBM E-score” value: 0.277 for the first, 0.099 for the second.

Going from ACAGATCG to CTGCACGC, the “PBM E-score” value falls from -0.083 to -0.228.

Compared with AAGCCTAG, CTAGGACC is higher in “PBM E-score” value: -0.229 for the first, 0.116 for the second.

First: AGTAGAGA
Second: CCCGACAA
The “PBM E-score” value of the first is lower: -0.0933 for the first, 0.328 for the second.

Going from CTCGGTAC to TACCGGAA, the “PBM E-score” value rises from 0.183 to 0.262.

Compared with CCCGCGTA, ACAATGGG is lower in “PBM E-score” value: 0.155 for the first, 0.00938 for the second.

— the supplement of paper PMC3334620
